# Reference: PMC4336329 (PLoS ONE, 2015)
# The campaign covered roughly 310,000 compounds. About 2,200 (0.71%) showed an effect of 50% or more. The effect is printed as a negative number. Some of the results follow.
# Target: human ether-à-go-go-related gene (hERG) potassium channel (human, UniProt Q12809)
# Assay: primary screen, population patch clamp on CHO cells stably expressing hERG
# Sequence of human ether-à-go-go-related gene (hERG) potassium channel (Q12809 whole entry, looked up): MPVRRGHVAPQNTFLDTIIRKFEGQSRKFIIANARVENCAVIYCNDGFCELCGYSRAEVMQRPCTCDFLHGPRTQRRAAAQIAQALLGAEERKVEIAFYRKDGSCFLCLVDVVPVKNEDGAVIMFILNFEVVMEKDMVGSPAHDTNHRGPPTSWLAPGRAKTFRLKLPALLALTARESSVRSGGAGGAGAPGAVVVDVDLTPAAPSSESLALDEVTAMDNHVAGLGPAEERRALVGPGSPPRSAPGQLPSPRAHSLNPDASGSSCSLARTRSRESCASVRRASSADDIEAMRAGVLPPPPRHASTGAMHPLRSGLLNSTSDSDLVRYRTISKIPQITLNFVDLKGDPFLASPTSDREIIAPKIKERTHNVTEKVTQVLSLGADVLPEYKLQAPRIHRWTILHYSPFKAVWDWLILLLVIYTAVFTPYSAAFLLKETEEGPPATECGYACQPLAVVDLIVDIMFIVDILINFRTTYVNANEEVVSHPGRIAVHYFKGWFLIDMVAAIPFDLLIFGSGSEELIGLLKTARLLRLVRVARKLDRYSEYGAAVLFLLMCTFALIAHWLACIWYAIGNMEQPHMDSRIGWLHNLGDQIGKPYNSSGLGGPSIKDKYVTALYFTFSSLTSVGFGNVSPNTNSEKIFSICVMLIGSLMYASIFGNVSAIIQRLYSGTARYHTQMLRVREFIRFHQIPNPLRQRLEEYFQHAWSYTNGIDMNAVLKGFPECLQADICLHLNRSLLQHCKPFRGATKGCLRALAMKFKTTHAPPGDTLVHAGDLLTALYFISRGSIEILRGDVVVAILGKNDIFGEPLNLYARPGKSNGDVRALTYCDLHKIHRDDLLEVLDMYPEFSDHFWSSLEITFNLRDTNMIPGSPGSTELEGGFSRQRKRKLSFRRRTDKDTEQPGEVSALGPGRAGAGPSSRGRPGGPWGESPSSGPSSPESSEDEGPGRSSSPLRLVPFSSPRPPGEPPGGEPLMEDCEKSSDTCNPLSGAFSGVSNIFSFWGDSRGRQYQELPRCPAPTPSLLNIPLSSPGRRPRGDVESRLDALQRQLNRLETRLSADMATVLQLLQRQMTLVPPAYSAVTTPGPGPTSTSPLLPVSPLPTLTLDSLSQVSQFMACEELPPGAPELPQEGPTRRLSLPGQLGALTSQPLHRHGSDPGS
row,Compound,"hERG current change (%, negative = inhibition) at 1uM [%]"
1,Fc1ccc(CNC(=S)Nc2ccccc2Cl)cc1,6.4
2,CC(C)Oc1ccc(CNC(=S)N/N=C/c2ccc([N+](=O)[O-])cc2)cc1,10.6
3,c1ccc2[nH]c(CSc3nc4ccccc4o3)nc2c1,11.6
4,COc1ccc(-c2cc(C(=O)N/N=C(\C)c3cccnc3)c3ccccc3n2)c(OC)c1,3.99
5,O=C(CCC1CCCN(C(=O)Cc2ccc(F)cc2)C1)N1CCN(c2ccccn2)CC1 (stereo not drawn),13.3
6,CCOC(=O)c1c(NC(=O)Cc2cccs2)sc2c1CCCC2,14.5
7,CCCCn1c(N)c(N(CCOC)C(=O)c2cc3ccccc3cc2OC)c(=O)[nH]c1=O,19
8,O=C(NN1CCOCC1)c1ccc([N+](=O)[O-])cc1,9.95
9,CN(C)S(=O)(=O)c1cc(NC(=O)CNCCN2CCOCC2)ccc1Cl.O=C(O)C(=O)O,7.62
10,CCOc1ccc(S(=O)(=O)n2c(C)nc3ccccc32)cc1,-12.4
11,CCn1c2ccccc2c2cc(NC(=O)c3ccc(C)c([N+](=O)[O-])c3)ccc21,7.84
12,Oc1c(Br)cc(Br)cc1/C=N/c1nccs1,5.68
13,CCOCC(=O)Nc1nnc(SCCOC)s1,-4.13
14,O=C(NC1CC1)C1CCN(C2CCN(C(=O)CC3=CCCCC3)CC2)CC1,9.03
15,CCN(CC(=O)Nc1cc(Cl)ccc1C)C(=O)CCS(=O)(=O)c1ccc(Cl)cc1,3.9
16,O=C(NCc1ccncc1)c1cc(-c2ccc(Cl)cc2)oc1C(F)(F)F,9.61
17,Cc1cc(S(=O)(=O)Nc2noc3ccccc23)ccc1F,15.4
18,COc1ccccc1CCNC(=O)Cn1ccc2cc(S(=O)(=O)N3CCCC3)ccc21,31.8
19,O=C(COc1ccccc1F)NNC(=O)c1ccc(N2CCCCC2)c([N+](=O)[O-])c1,-7.47
20,CC(C)(C)c1cc(NC(=O)c2cccc([N+](=O)[O-])c2)no1,2.5
21,CC1=C(C#N)C(c2ccoc2)C(C(=O)OCc2ccccc2)=C(N)S1 (stereo not drawn),13.5
22,COc1cc(NC(=S)N2CCN(C/C=C/c3ccccc3)CC2)cc(OC)c1,10

row,Compound,"hERG current change (%, negative = inhibition) at 1uM [%]"
1,O=C(NCc1ccccc1)c1csc(-c2cccnc2)n1,6.75
2,COc1cc(C(Nc2ccc3c(c2)OCO3)C(=O)NC2CCCCC2)cc(OC)c1OC (stereo not drawn),-7.09
3,CCc1cccc(C)c1NC(=O)CCCC(=O)O,18.1
4,CC(C)CCN(C(=O)c1csnn1)C(C(=O)NC1CCCC1)c1ccccc1 (stereo not drawn),2.94
5,O=C(Nc1ccc(Cl)cc1)Nc1nnc(CSc2ccc(Cl)cc2)s1,-5.41
6,Cc1ccc(S(=O)(=O)Nc2ccccc2-c2nc3ccccc3[nH]c2=O)cc1,-2.57
7,COc1cc(CSc2nc(-c3ccccc3)cc(=O)[nH]2)cc(OC)c1,10.4
8,CC1Cc2cc(S(=O)(=O)N3CCC(C(=O)N4CCN(c5ccccc5F)CC4)CC3)ccc2N1C(=O)C1CC1 (stereo not drawn),8.82
9,COc1ccc([C@H]2CC(=O)C=C(c3ccnc4ccc(Cl)cc34)C2)cc1,-19.2
10,O=C(NC1CCCCC1)c1cc(S(=O)(=O)N2CCOCC2)ccc1Cl,6.31
11,NC(=O)C1=C[C@@H](c2ccc(Br)cc2)C[C@@H](OCCCCO)O1,7.17
12,COc1cccc(N=NC2C(=O)N(C(N)=S)N=C2C)c1 (stereo not drawn),6.71
13,CCc1cc2c(=O)[nH]c(Cc3ccc(OC)cc3)nc2s1,1.88
14,Cc1cc2oc(=O)cc(C)c2cc1NC(=O)CCC(=O)O,5.11
15,CCOc1ccc2nc(NC(=O)CSc3nc4c(c(=O)n(C)c(=O)n4C)n3CC)sc2c1,9.1
16,C=CCSc1nc(C)c(CCCC)c(=O)[nH]1,6.77
17,CC(=O)NNc1cc(=O)c2c(=O)n(C)c(=O)n(C)c2[nH]1,7.25
18,O=C(COC(=O)c1cccc(S(=O)(=O)N2CCc3ccccc3C2)c1)NCc1ccco1,-9.43
19,Cc1[nH]nc(NNC(=O)c2ccccc2)c1[N+](=O)[O-],12.3
20,Cc1c(C)n(CCO)c2ncnc(Nc3ccc(F)cc3)c12,11.7
21,COc1cc(C(=O)N2CCN(C3CCCCC3)CC2)cc(OC)c1OC.O=C(O)C(=O)O,14.5
22,O=C(CCc1nc2ccccc2c(=O)[nH]1)NNC(=O)COc1ccc(Br)cc1,3.51

row,Compound,"hERG current change (%, negative = inhibition) at 1uM [%]"
1,C[C@@]12C(=O)N(CC3CC3)CC(=O)N1[C@H](/C=C/c1ccccc1)[C@@H]1C(=O)N(c3ccccc3)C(=O)[C@@H]12,3.01
2,Cc1ccc(S(=O)(=O)NC(CC(C)C)C(=O)NCC(c2ccco2)N2CCCCC2)cc1 (stereo not drawn),13.2
3,O=C(CCc1c[nH]c2ccccc12)OCc1cccc(C(F)(F)F)c1,12.7
4,CCOc1ccc(C2/C(=C(\O)c3cccc(OC)c3)C(=O)C(=O)N2c2ccccn2)cc1OC (stereo not drawn),4.78
5,Cc1ccc(C(=O)OCC(=O)NCCC2=CCCCC2)cc1N,12.5
6,O=C(NCc1ccccn1)c1ccc(OC2CCN(Cc3ccccc3)CC2)cc1,-4.72
7,CC(C)Cc1cc(C(=O)N2CCN(c3ccc(F)cc3)CC2)no1,-6.51
8,N/C(=N\OC(=O)c1ccccc1Br)c1ccc([N+](=O)[O-])cc1,6.19
9,C[C@@H](CSc1ccccc1)CN1CC[C@H](NC(=O)OCc2ccccc2)CCC1=O,10.5
10,O=C(N/N=C/c1ccsc1)c1ccc2ccccc2n1,8.48
11,C=CCn1c(O)c(C(=O)CCCCCC)c(=O)[nH]c1=O,16.7
12,CC1CC(C)CN(CC(=O)c2cccs2)C1 (stereo not drawn),-7.65
13,COCCNc1ccc(-c2nn(C)c(=O)c3ccccc23)cc1[N+](=O)[O-],17
14,O=c1c2ccccc2nc(/C=C/c2ccc([N+](=O)[O-])o2)n1CCCO,-23.5
15,CC(C)CCNC(=O)C1CCCN(S(=O)(=O)c2ccc(F)cc2)C1 (stereo not drawn),6.89
16,CC(C)(C)NC(=O)C(c1ccco1)N(C(=O)Cn1nnc(-c2ccc(F)cc2)n1)c1cccc(F)c1 (stereo not drawn),11.1
17,Cc1c(C(=O)N2CCCCC2)sc(N)c1C#N,13.9
18,O=C(CCS(=O)(=O)c1ccccc1)Nc1nnc(-c2ccco2)o1,12.6
19,O=C(CC1NCCNC1=O)Nc1cccc([N+](=O)[O-])c1 (stereo not drawn),6.97
20,Cc1ccc(OCCNC(=O)c2ccccc2SCC(=O)N2CCCC2)cc1,30.7
21,CN1CCN(CCCCC(=O)c2ccccc2)CC1.Cl,11.1
22,Cc1cccc(C)c1NC(=O)c1cccn(Cc2ccc3c(c2)OC(F)(F)O3)c1=O,8.62

row,Compound,"hERG current change (%, negative = inhibition) at 1uM [%]"
1,O=C(NCc1ccco1)c1ccc(S(=O)(=O)N2CCOCC2)cc1,18
2,OC1CCN(Cc2ccc3ccccc3c2)CC1,14.3
3,COc1ccc(NC(=O)c2ccc3c(c2)C(=O)N(Cc2cccnc2)C3=O)cc1,15
4,CC(=NCc1ccco1)c1c(O)n(-c2ccccc2)c(=O)[nH]c1=O,4.42
5,CCN(CC(=O)NCCc1ccc(F)cc1)Cc1nc2ccccc2c(=O)[nH]1,1.66
6,Cc1ccc(C)c(NC(=O)CN(C)C(=O)C2CCCC2)c1,14.6
7,Cc1cc(NC(=O)CSc2nc3c(C)cccc3cc2C)no1,19.6
8,CSc1ncccc1C(=O)OCC(=O)NC(C)(C)C,9.9
9,Cn1nnnc1Sc1ncnc2scc(-c3cc4ccccc4o3)c12,9.36
10,CCOc1ccc(CCNC(=O)COC(=O)CCS(=O)(=O)c2ccc(C)cc2)cc1OCC,28.7
11,Cc1cccc(-n2cc(CN(C)Cc3nccn3C)c(-c3cccc(F)c3)n2)c1,3.33
12,S=C1COC(c2ccccc2)N1c1ccccc1 (stereo not drawn),3.4
13,Cc1cc(C)c(NS(=O)(=O)c2ccc3c(c2)n(C)c(=O)n3C)c(C)c1,8.27
14,Cc1cccn2c(=O)c3cc(C(=O)NCCN4CCOCC4)n(C)c3nc12,9.82
15,CN(C)c1nc(OCCNC(=O)COc2ccc(Cl)cc2Cl)nc(N(C)C)n1,0.0232
16,Cc1cccc(N2CCN(C3=NC(=O)/C(=C\c4cn[nH]c4-c4ccccc4)S3)CC2)c1,0.304
17,CCC(=O)c1ccc(OCC(O)CN2C(=O)NC(C)(C)C2=O)cc1 (stereo not drawn),18.2
18,O=C(NCCCN1CCOCC1)c1cccnc1SCc1ccccc1Cl,13.1
19,Cc1cccc(C)c1NC(=O)N1CCC(n2c(=O)[nH]c3ccccc32)CC1,15.4
20,COC(=O)c1ccc(C(=O)NC(=S)Nc2nc3c(s2)CCCC3)cc1,10.8
21,CCOC(=O)C1=C(O)c2ccccc2C(=O)/C1=C\c1ccc(C)cc1,10.2
